According to PubChem BioAssay AID488969 (Vanderbilt High Throughput Screening Facility, 2010):
Whole data set: some 110,000 compounds, median “z-score” near -0.1, cut for the highest 2% near 2. The list shows a part of the results. Active and inactive are the calls of the source.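 The calls were made as follows: active = z-score in the third read window above 3 or below -3; inactive = the rest.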

molecular target: Metabotropic glutamate receptor 8 (Rattus norvegicus) (UniProt P70579); test: mGluR8 Gi/Go-coupled signaling modulation – cell-based, rat, thallium flux, HTS, primary screen (AID 488969); details: HEK293 rat mGluR8, GIRK (G protein-gated inwardly rectifying potassium channel) thallium flux, FluoZin2; at 10 µM; stronger effect = higher value; submaximal glutamate (EC20) added with thallium
Sequence of UniProt P70579 (P70579 whole entry, looked up): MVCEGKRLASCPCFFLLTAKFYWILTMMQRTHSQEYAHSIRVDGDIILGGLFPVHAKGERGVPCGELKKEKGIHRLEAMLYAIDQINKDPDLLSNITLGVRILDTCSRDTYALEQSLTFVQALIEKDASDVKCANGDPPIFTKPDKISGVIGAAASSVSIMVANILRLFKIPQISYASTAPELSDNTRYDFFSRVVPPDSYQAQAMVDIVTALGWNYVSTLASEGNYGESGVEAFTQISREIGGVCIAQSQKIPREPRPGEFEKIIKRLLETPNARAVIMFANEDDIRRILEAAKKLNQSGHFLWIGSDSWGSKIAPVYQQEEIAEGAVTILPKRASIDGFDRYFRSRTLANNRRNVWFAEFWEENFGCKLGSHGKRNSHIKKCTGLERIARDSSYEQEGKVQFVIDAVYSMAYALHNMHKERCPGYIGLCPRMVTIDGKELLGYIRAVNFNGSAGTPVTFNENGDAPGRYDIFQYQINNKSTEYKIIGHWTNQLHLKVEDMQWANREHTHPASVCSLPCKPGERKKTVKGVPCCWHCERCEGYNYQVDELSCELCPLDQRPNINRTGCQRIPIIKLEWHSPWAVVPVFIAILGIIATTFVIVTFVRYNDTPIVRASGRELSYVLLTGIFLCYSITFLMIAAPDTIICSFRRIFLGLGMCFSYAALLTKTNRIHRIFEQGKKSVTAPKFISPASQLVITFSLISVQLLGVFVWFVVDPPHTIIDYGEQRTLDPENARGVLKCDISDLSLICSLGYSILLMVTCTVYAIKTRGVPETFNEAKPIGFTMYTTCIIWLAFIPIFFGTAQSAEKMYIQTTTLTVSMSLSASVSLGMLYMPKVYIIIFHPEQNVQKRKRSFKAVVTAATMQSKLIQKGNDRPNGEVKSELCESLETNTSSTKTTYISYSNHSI

| SMILES | z-score |
| --- | --- |
| CC1=C/C(=N\Nc2ccccc2[N+](=O)[O-])CC(C)(C)C1 | -0.268 |
| O=C1Nc2cc(Cl)c(Cl)cc2N(O)N1c1cc(Cl)cc(Cl)c1 | -0.38 |
| COc1cc(C)nc(NS(=O)(=O)c2ccccc2)n1 | 0.541 |
| COc1ccc(C(=O)c2ccc(Cl)cc2Cl)cc1 | 0.127 |
| O=C(c1ccccc1)c1cncc(Br)c1 | -0.00898 |
| COc1ccccc1OCCOCCn1cnc2ccccc2c1=O | -0.162 |
| CCOC(=O)/C(=N\Nc1cccc(C(F)(F)F)c1)N(CCOC)CCOC | -0.336 |
| O=C(CN1CCN(S(=O)(=O)c2ccc(Cl)cc2)CC1)Nc1ccc(F)cc1F | -0.415 |
| O=C(N/N=C/C=C\c1ccco1)c1cccnc1 | 0.132 |
| Cc1ccc(C)c(OCc2nnc(NC(=O)c3ccco3)s2)c1 | -0.431 |
| O=C(COc1ccc(Cl)cc1)Nc1c(-c2cccs2)nc2ccccn12 | -0.182 |
| O=C(C1CCC1)N1CCc2cc(S(=O)(=O)NCc3cccnc3)ccc21 | -0.0446 |
| Cc1ccccc1C(=O)N1CCc2ccccc2C1 | -0.19 |
| S=c1[nH]nc(-c2cc3ccccc3o2)n1Cc1ccccc1 | 2.66 |
| O=Cc1ccc(OC(=O)C2CC(=O)N(c3ccc(F)cc3)C2)cc1 (centres undefined) | -0.495 |
| CN(C)c1nccc(Nc2ccccc2)c1C#N | 0.148 |
| CCOC(=O)C(C)Sc1nc(-c2cccs2)ccc1C#N (centres undefined) | -0.643 |
| O=C(OCc1ccccc1)C1CCCN1C(=O)c1ccccc1[N+](=O)[O-] (centres undefined) | -0.114 |
| CC(C)C(NC(=O)C12CC3CC(CC(C3)C1)C2)C(=O)N/N=C/C1=C(N2CCOCC2)C(=C\c2cccc([N+](=O)[O-])c2)/CC1 (centres undefined) | -0.209 |
| CC1CC2=C(C(=O)O1)C(c1ccc(Cl)cc1)Nc1ccccc1N2 (centres undefined) | -0.122 |
| Cc1ccc(-n2nc3c(N4CCN(c5ccccc5)CC4)nnc(C)c3c2C)cc1 | 0.128 |
| Brc1cc(Br)c2nc(-c3cccs3)ccc2c1 | 0.033 |
| CCNc1nnc(-c2ccccc2OC)s1 | 0.181 |

| SMILES | z-score |
| --- | --- |
| CCn1c(CSc2nc3ccccc3s2)nnc1SCC(N)=O | -0.107 |
| COc1cc(CNCCN(C)C)c(Br)cc1OCC(=O)NCc1ccccc1 | -0.409 |
| COc1cc(OC)c(NC(=O)CCCn2c(=O)oc3ccccc32)cc1Cl | -0.0864 |
| CC(C)Cn1c(N)c(C(=O)COC(=O)CC23CC4CC(CC(C4)C2)C3)c(=O)n(C)c1=O | -0.111 |
| Cc1ccsc1/C=C1\SC(N2CCOCC2)=NC1=O | -0.0478 |
| c1ccc(COc2ccc(OCCCNC3CCCC3)cc2)cc1 | 2.46 |
| CCOC(=O)C(=CNc1cc(C)nn1-c1ccc(C)cc1)C(=O)OCC | -0.0759 |
| O=C1CCCc2nn(-c3ccccc3)c(-c3ccncc3)c21 | 0.215 |
| CC(=O)c1c(C)[nH]c(C(=O)Nc2cc(C)cc(C)c2)c1C | -0.406 |
| O=C(C1CCCN1S(=O)(=O)c1cccc2cccnc12)N1CCn2c1nc1ccccc12 (centres undefined) | active: 3.63 |
| Cc1ccc2nc(NC(=O)CSc3nc4c(c(=O)n3C)SC(C)C4)sc2c1 (centres undefined) | -1.21 |
| O=C(CSc1nc2ccc(Cl)cc2[nH]1)c1ccc2c(c1)OCO2 | -0.0875 |
| O=C1CCCC2=C1C(c1ccccc1)C1C(=O)c3ccccc3C1=N2 (centres undefined) | 0.0439 |
| CCOC(=O)CSc1nc2c(c(=O)n1-c1ccc(OCC)cc1)SCC2 | -0.284 |
| COC(=O)C1=C(C)N(C)C(=S)NC1c1ccccc1 (centres undefined) | -0.183 |
| Cc1ccc(C(=O)Nc2nnc(C)s2)o1 | -0.0894 |
| Nn1cnnc1N/N=C/c1cc(Br)cc(Br)c1O | -0.242 |
| O=c1c2ccccc2ncn1-c1cccc(Cl)c1 | 0.000335 |
| Cc1cc(NC(=S)N(CCCN2CCOCC2)Cc2ccco2)ccc1Cl | -1.34 |
| COc1ccc(C(=O)NCc2c(CC(C)C)oc(C)c2C(=O)O)cc1 | -0.742 |
| Cc1cc(C)c(S(=O)(=O)Nc2ccc3c4c(cccc24)CC3)c(C)c1 | -0.268 |
| CN1CCN(S(=O)(=O)c2ccc(-c3ccccc3)cc2)CC1 | 0.335 |
| Cn1c(=O)[nH]c(=O)c2c1nc(N1CCCCCC1)n2CCCSc1nnnn1-c1ccccc1 | 0.52 |

| SMILES | z-score |
| --- | --- |
| CCOC(=O)N1CCN(C(=O)c2ccc3nc4cc(Cl)ccc4c(=O)n3c2)CC1 | 0.455 |
| FC(F)(F)c1cc(C(F)(F)F)c2ccc(N3CCN(c4ncccn4)CC3)nc2n1 | -1.01 |
| CC1CCC(C(=O)NC(C(=O)N2CCN(c3ccccn3)CC2)C(C)C)CC1 (centres undefined) | 0.727 |
| O=C(NCCO)c1cc2ccccc2cc1O | 0.0268 |
| O=C(CCS(=O)(=O)c1cccs1)Nc1ccc(C(=O)NCc2cccs2)cc1 | -1 |
| CC(=O)Nc1ccc(S(=O)(=O)Nc2ccc(N3CCOCC3)cc2)cc1 | -0.0547 |
| Clc1ccc(OCc2nn3c(-c4ccncc4)nnc3s2)cc1 | 0.253 |
| Cc1ccc(N(C(=O)C2CCC(=O)N2)C2(C(=O)NC3CCCCC3)CCCCC2)cc1 (centres undefined) | 0.599 |
| CC1(c2ccccc2)CC2CC(c3ccccc3)N1O2 (centres undefined) | -0.206 |
| CCCOc1cc(C)nc(-c2ccccc2O)n1 | -0.181 |
| O=C(CCSc1ccc(Cl)cc1)NC1CCCCC1 | -0.109 |
| Cc1cc(=O)n2c3c(sc2n1)C(=O)N(Cc1ccccc1)C3=O | -0.193 |
| Cc1cc(C)cc(-n2c(C)cc(C(=S)N3CCOCC3)c2C)c1 | 0.00785 |
| O=S(=O)(N1CCCCC1)n1nnc2ccccc21 | 0.024 |
| Cc1ccc(C)c(OCCCCn2cnc3ccccc3c2=O)c1 | -0.208 |
| CC(=O)c1cnc(Nc2nc(C)c3ccc(C)cc3n2)nc1C | -0.43 |
| Cc1cc(NC(=O)C2CCCN(S(=O)(=O)c3c(C)noc3C)C2)no1 (centres undefined) | 0.708 |
| Cc1cc(C)n2nc(SCC(=O)Nc3c(C)n(C)n(-c4ccccc4)c3=O)nc2n1 | -0.229 |
| COc1ccc(-c2cc(C)nc3nc(N)nn23)cc1 | -0.0092 |
| Cc1cc(Oc2ccccc2)nc(SCC(=O)Nc2ccc(Cl)c(Cl)c2)n1 | 0.266 |
| COc1ccccc1CNC(=S)NC1CCCC1 | -0.0815 |
| CCOC(=O)N1CCN(CC(=O)Nc2ccc([N+](=O)[O-])cc2C(=O)Nc2ccccc2F)CC1 | -0.485 |
| CCOC(=O)c1c(NC(=O)CSc2nnc(C)c(=O)[nH]2)sc2c1CCCC2 | -0.522 |

| SMILES | z-score |
| --- | --- |
| CCn1c(C)c(C(C)=O)c(N2CCN(c3ccc(F)cc3)CC2)nc1=S | -0.236 |
| CC(=O)Nc1cc2ccc(OC(C)=O)cc2oc1=O | -0.336 |
| CCCCSC1(SCCCC)N=C(N)C2(C#N)C(c3ccccc3)NC(C)=C(C)C12C#N (centres undefined) | -0.0616 |
| O=C(/C=C/c1ccc(Br)cc1)NC(=S)Nc1ccc(S(=O)(=O)Nc2nccs2)cc1 | -0.399 |
| O=C(N/N=C/c1cccc([N+](=O)[O-])c1)c1ccc(CN2CCOCC2)cc1 | 0.56 |
| Cc1ccc(-n2nc(C)c3c(C)c(CCC(=O)NCc4ccccc4)c(C)nc32)cc1 | 0.0582 |
| CCOC(=O)C1CCN(C(=O)COc2cccc(C)c2)CC1 | -0.0116 |
| O=C1c2cccc3cccc(c23)C(=O)N1c1nccs1 | -0.239 |
| CCOC(=O)c1c(N)sc2c(NC(C)=O)cccc12 | 0.677 |
| COc1cccc(Nc2nc3ccccc3n3cnnc23)c1 | -0.251 |
| COc1ccc2oc(-c3ccc(NC(=O)c4ccc(N5CCOCC5)c([N+](=O)[O-])c4)cc3)nc2c1 | -0.0334 |
| CC1Cc2ccccc2N1C(=O)c1ccc(N2CCCC2)c([N+](=O)[O-])c1 (centres undefined) | -0.202 |
| N#Cc1cc2c(nc1SCc1ccccc1)CCC2 | 0.359 |
| CC(C)Cn1c(-c2ccccc2)nc(=S)c2c1CCCC2 | 0.28 |
| Cc1cnn(-c2cc(N/N=C/c3ccccc3)ncn2)c1 | -0.0535 |
| Cc1cccc(Nc2nnc(SCC(=O)NC3CCCc4ccccc43)s2)c1C (centres undefined) | -0.282 |
| C/C(=N\NC(=O)c1cc(-c2cccc([N+](=O)[O-])c2)n[nH]1)c1ccccc1O | -0.0279 |
| CCC(=O)NC(=S)Nc1ccc(S(=O)(=O)N2CCN(C)CC2)cc1 | -0.0523 |
| COc1ccc(-c2cc(C(=O)OC(C)C(=O)Nc3c(C)n(C)n(-c4ccccc4)c3=O)c3ccccc3n2)cc1 (centres undefined) | -0.604 |
| CCN=C(NCC)SC1CC(=O)N(c2ccc(OC)cc2)C1=O (centres undefined) | -0.428 |
| Cn1c(=O)c2ncn(CC(=O)Nc3ccc(N4CCOCC4)cc3)c2n(C)c1=O | 0.0617 |
| O=C(CSc1ncnc2c1sc1ccccc12)Nc1ccc(Br)cc1 | -0.0878 |
| Cc1cccc(C)c1OCC(O)CNS(=O)(=O)c1ccccc1C(=O)N1CCOCC1 (centres undefined) | -0.302 |

| SMILES | z-score |
| --- | --- |
| O=C(CC1CCCCC1)NCc1ccccn1 | -0.377 |
| O=C(NNC(=O)c1cccs1)Nc1cccc(Cl)c1 | 1.31 |
| Cc1cc(=O)oc2cc(OC(C)C(=O)Nc3ccc(N4CCOCC4)cc3)ccc12 (centres undefined) | 0.0147 |
| CCCOc1cc(C)c(S(=O)(=O)N2CCN(C)CC2)cc1C | 0.0948 |
| Cc1nc2cc(NC(=O)NCc3ccccc3)ccc2o1 | 0.0271 |
| CCOCCCNS(=O)(=O)c1ccc2c(c1)OCCO2 | -0.138 |
| Cc1cc(C(C)(C)C)cc(S(=O)(=O)NCCO)c1C | -0.2 |
| CCC(C)NC(=O)c1ccc(CSCc2cccc(F)c2)o1 (centres undefined) | -0.863 |
| CCNC(=O)CCc1nc(-c2ccc(C(C)(C)C)cc2)no1 | 0.111 |
| O=C(CSc1nnc(CNc2ccc(F)cc2)n1-c1ccccc1)N1CCOCC1 | -0.00832 |
| CC(C)CCNC(=O)NC(=O)COc1ncnc2sccc12 | -0.533 |
| Cc1ccccc1N/C(SCc1cccc(Br)c1)=C(/C#N)C(N)=O | -0.127 |
| O=C1NC2(CCCCC2)NN1c1ccccc1 | -0.125 |
| Cc1ccc(S(=O)(=O)CNC(=S)c2cccc(Cl)c2)cc1 | 0.543 |
| CCOC(=O)c1cnc(SCc2ccc(C(C)(C)C)cc2)nc1N | 0.064 |
| O=C(NCCCc1ccccc1)Nc1cccc(Cl)c1 | 2.01 |
| COc1ccc(S(=O)(=O)N2CCC(C(=O)N3CCCCC3)CC2)cc1Cl | 0.233 |
| Cc1ccc(S(=O)(=O)Nn2c(C)ccc2C)cc1 | 0.267 |
| CCNC(=O)C(=O)NCC1OCCCN1S(=O)(=O)c1cccs1 (centres undefined) | -0.0892 |
| Cc1cccc(NC(=S)NCc2ccc3c(c2)OCO3)c1 | -0.0322 |
| CCCC(=O)Nc1nnc(CCN2CCCCC2)s1 | -0.221 |
| COc1ccccc1NC(=O)CN(C)S(=O)(=O)c1ccc2c(c1)CCC(=O)N2 | -0.111 |
